The whole screen tested about 240,000 compounds, of which about 15 (0.006%) were called active. Inconclusive results, whose numbers are uncertain, are shown with a selection of clear calls. Calls come from the whole dose curve; as a rule, active = well fitted inhibition curve with a large enough effect; inconclusive = small, poorly fitted or top-dose-only effect, or effect the other way, or another doubt; inactive = no such curve, though single readings can be large or run the other way. Potencies of inconclusive entries are left out as doubtful fits.
Molecular target: Lysosomal alpha-glucosidase (Homo sapiens) (UniProt P10253)
Assay: qHTS Assay for Inhibitors and Activators of Human alpha-Glucosidase From Spleen Homogenate;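 for activity change, negative = inhibition: 0% = enzyme with vehicle and -100% = no enzyme basal signal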
Details: 4-MU-alpha-glucoside fluorescence; series mostly up to 79.9 µM
Procedure, shortened: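 Enzyme source: human spleen homogenate, 1 ug/well. Buffer 50 mM citric acid/K phosphate pH 5.0, 0.01% Tween-20. 4-MU-alpha-glucoside 1 mM; 37 C x 40 min; NaOH/glycine stop; fluorescence.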
Potency is the fitted concentration of half-maximal effect; tags give direction and shape of the fitted curve.

SMILES | Potency | activity change, negative = inhibition
COc1ccc(-n2cc(CNCCc3ncc(C)[nH]3)c(-c3ccccc3Cl)n2)cc1 | inactive | 
COc1cc(CNCCc2c[nH]c3ccccc23)ccc1OCc1ccc(F)cc1 | inactive | 
CNc1nnc(-c2ccc(N(C)C)cc2)s1 | inconclusive [activator, partial curve] | 
CCOC(=O)C1(C(=O)O)NC(=O)CC1c1ccccc1 (centres undefined) | inconclusive [inhibitor, partial curve] | 
O=C(Oc1ccc2c3c(c(=O)oc2c1)CCC3)c1ccco1 | inconclusive [activator, partial curve] | 
Cc1cccc(N(C(=O)C(F)(F)F)C(C(=O)NC2CCCCC2)c2cccs2)c1 (centres undefined) | inconclusive [inhibitor, single point] | 
O=C(Oc1ccc(/C=N/n2cnnc2)cc1)c1cccc([N+](=O)[O-])c1 | inconclusive [inhibitor, full curve, poor fit] | 
O=c1[nH]cnc2sc3c(c12)CCN(Cc1ccccc1)C3 | inconclusive [activator, partial curve] | 
CC(=O)Nc1ccc(S(=O)(=O)C(C#N)c2nc3ccccc3nc2NCCO)cc1 (centres undefined) | inconclusive [activator, single point] | 
Cc1ccc(Nc2nc3nonc3nc2N(C)C)cc1 | inconclusive [inhibitor, single point] | 
COC(=O)Cc1c(C)c2ccc(OC(=O)c3ccccc3)cc2oc1=O | inconclusive [activator, partial curve] | 
C/C(O)=C(/C#N)C(=O)Nc1cc(Br)ccc1Br | inconclusive [inhibitor, partial curve] | 
CN(C)/N=C/c1c(O)ccc2ccccc12 | inactive | 
O=[N+]([O-])c1ccc(N2CCN(C(=S)NCc3ccc(Cl)cc3)CC2)cc1 | inconclusive [inhibitor, full curve, poor fit] | 
c1ccn2c(c1)nc1c2nc2ccccn21 | inconclusive [activator, partial curve] | 
COc1cccc(NC(=O)CSc2nc3c(sc4ccccc43)c(=O)n2CCN(C)C)c1 | inconclusive [activator, single point] | 
CCOC(=O)C1=C(c2ccccc2)Nc2c(c(=O)n(C)c(=O)n2C)C1c1ccc(O)c(OC)c1 (centres undefined) | inactive | 
CC(C)(C)n1nnnc1C(c1ccncc1)N1CCN(c2ccc(O)cc2)CC1 (centres undefined) | inactive | 
COc1cc(CNc2nc3ccccc3[nH]2)cc(OC)c1OC | inconclusive [inhibitor, full curve, poor fit] | 
CCCc1cc(=O)oc2c(CN(CC)CC)c(O)c(Cl)cc12 | inconclusive [activator, partial curve] | 
Cc1cc(C)c(-c2cc([C@H](C)O/N=C\[C@@H](C)[C@H](OCc3ccccc3)C(C)C)on2)c(C)c1 |  | inactive: 0.733% [at 17.4 µM]
Clc1ccc(-c2ccnc(Oc3cc(Cl)ccc3Cl)n2)cc1 | inconclusive [inhibitor, partial curve] | 

SMILES | Potency | activity change, negative = inhibition
Cc1cc(=O)n(C)c(=O)n1CC(=O)N1CCCCCC1 | inconclusive [inhibitor, single point] | 
CSc1nc(NC(C)(C)C)nc(Oc2ccc(=O)n(C)n2)n1 | inconclusive [inhibitor, partial curve, poor fit] | 
OC[C@@H]1[C@@H](O)[C@H](O)[C@H]2[C@@H](O)CCN21 | active: 28.2 µM | 
COc1cc(/C=N/N(C)C)cc(Br)c1O | inactive | 
COc1cc(NC(=O)CN2CCN(c3ccccc3F)CC2)c(C)cc1[N+](=O)[O-] | inconclusive [inhibitor, partial curve] | 
COc1ccc(Cl)cc1NC(=O)COC(=O)C(CC(C)C)N1C(=O)C2CC=CCC2C1=O (centres undefined) | inactive | 
N#Cc1c(-c2cccnc2)cc(-c2ccccc2)nc1N | inconclusive [activator, single point] | 
Cc1nc(C)c(C(=O)N2CCCC(CCC(=O)NCc3ccc(F)c(F)c3)C2)s1 (centres undefined) | inconclusive [inhibitor, single point] | 
CC(=O)c1cc2ccc(O)cc2oc1=O | inconclusive [activator, single point] | 
CCCN1CCN(C(=O)C2CCN(S(=O)(=O)c3ccc4c(c3)oc(=O)n4C)CC2)CC1 | inconclusive [inhibitor, single point] | 
CCOc1ccc(N2C(=O)Nc3ccccc3C2(O)C(=O)NCc2ccc(F)cc2)cc1 (centres undefined) | inactive | 
COc1cc(NCCCCCCCN)c2ncccc2c1 | inactive | 
CC(C)CCNC(=O)CN(Cc1ccc2c(c1)OCO2)C(=O)CCC(=O)Nc1ccccn1 | inconclusive [inhibitor, full curve, poor fit] | 
c1cc2n(c1)-c1c(ccc3c1OCO3)CNC2c1ccc2c(c1)OCO2 (centres undefined) | inconclusive [inhibitor, full curve, poor fit] | 
Cc1ccc2[nH]c(=O)c(C(c3nnnn3C3CCCC3)N3CCCc4ccccc43)cc2c1 (centres undefined) | inactive | 
O=C(CSc1nc2ccccc2c(=O)[nH]1)c1ccc(O)c(O)c1 | inconclusive [inhibitor, partial curve, poor fit] | 
COC(=O)C1=CN(Cc2ccc(OC)cc2)C=C(C(=O)OC)C1c1cccs1 | inconclusive [activator, single point] | 
Cc1ccc(OCC(=O)N2CCCCC2)c(Br)c1 | inconclusive [inhibitor, partial curve, poor fit] | 
Fc1ccc(C2=NN(c3ccccc3)C(c3ccco3)C2)cc1 (centres undefined) | inconclusive [activator, partial curve] | 
COCCN1C=C(C(=O)OC)C(c2ccccc2C(F)(F)F)C(C(=O)OC)=C1 | inconclusive [activator, single point] | 
CCCCNc1nc(C)nc2c1nc(-c1ccccc1)n2CC(C)(C)CN(C)C | inactive | 
COc1c(C)cc(C(=O)C2CCCN(Cc3cccc4nccnc34)C2)cc1C (centres undefined) | inconclusive [inhibitor, full curve, poor fit] | 
